In publication PMC6334971 one finds binding data, which are given here for six molecules.

The target of assay [1] is T1, HA-tagged TvTom40-2 (T. vaginalis TOM 40-2) (Trichomonas vaginalis) (UniProt A2EH93).
T1 sequence: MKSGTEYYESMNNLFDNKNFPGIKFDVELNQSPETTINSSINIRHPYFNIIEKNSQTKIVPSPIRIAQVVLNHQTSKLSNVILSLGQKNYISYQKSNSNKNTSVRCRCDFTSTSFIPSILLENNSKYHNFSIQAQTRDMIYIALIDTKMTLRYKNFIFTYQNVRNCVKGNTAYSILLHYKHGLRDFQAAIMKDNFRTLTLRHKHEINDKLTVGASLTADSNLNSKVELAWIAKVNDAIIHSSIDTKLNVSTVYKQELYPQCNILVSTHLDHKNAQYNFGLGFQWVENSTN
As to the kind of experiment: co-IP; α-HA IP of TvTom40-2-HA from digitonin-lysed hydrogenosomes of double transfectants under native conditions; immunoblot with α-V5 and polyclonal α-Sam50. On the technique in general: Immunoblotting shows a protein as a band on a membrane.

Assay [2] deals with T1, HA-tagged TvTom40-2 (T. vaginalis TOM 40-2) (Trichomonas vaginalis). The experiment in a line: co-IP; α-HA IP of TvTom40-2-HA from digitonin-lysed hydrogenosomes of double transfectants under crosslinking conditions (DSP); immunoblot with α-V5 and polyclonal α-Sam50.
For assay [3] the target is unchanged. As to the kind of experiment: co-IP; in vitro import of 35S-labelled TvFdx1-DHFR into hydrogenosomes (TvTom40-2-HA/Tom36-V5 strain) with 10 μM methotrexate, then crosslinking, lysis in 0.5% Triton X-100 and α-HA IP; autoradiography and immunoblot.
The target in assay [4] is cytosolic domain of Tom36 with a C-terminal polyhistidine tag (Tom36cd-His) (Trichomonas vaginalis) (UniProt A2DU34). The experiment in a line: pull-down; Tom36cd-His or Tom46cd-His on Ni-NTA agarose beads (blocked with 3% BSA) incubated with 35S-labelled in vitro translated proteins and Trichomonas cytosolic extract in 50 mM Tris, 150 mM NaCl pH 7.4, 1 h at 37 °C; eluted with 500 mM imidazole; autoradiography; only the target purified.

Assay [5] deals with cytosolic domain of Tom46 with a C-terminal polyhistidine tag (Tom46cd-His) (Trichomonas vaginalis) (UniProt A2FNS9). The assay is described as above.

These are yes or no findings as the source states them, for the method shown. In cells and extracts the contact can be indirect. Some entries that bind do so weakly or less than the wild type. For some of these results: Where a sequence is shown, tags or fusion partners need not be part of it.

Turning to “Sam50 (sorting and assembly machinery 50) (from UniProt A2DIG2 1-398)”, the binding entry in assay [1] and in assay [2] was “binds” in each case.

As to “V5-tagged Tom36 (from UniProt A2DU34 1-322)”, the binding entry in assay [1], in assay [2] and in assay [3] was “binds” each time.

Take “V5-tagged Tom46 (from UniProt A2FNS9 1-412)”: the values for the binding entry in assay [1] and in assay [2] were “binds weakly” and “binds”, respectively.

As for “V5-tagged hydrogenosomal outer membrane protein 19 (Homp19) (from UniProt A2DEL5 1-165)”, the binding entry in assay [1] and in assay [2] was “binds” each time.

B1: cytochrome b5 (cytosolic, radiolabelled) (protein, UniProt A2DLT3 1-94)
chain: MASAQIAWGERMKQLPWVGDITREELAKHNTPEDCWCSYRGEVYNMTPYLAMHPGGPKIICSVAGGDMGELWMKHHPYISPALIAKVKIGRLVK
modifications: [35S]-methionine labelled
Turning to B1, the binding result in assay [4] and in assay [5] was “no binding” throughout.

B2: V5-tagged Tom22-like protein (protein, UniProt A2D9L3 1-57)
chain: MFNLVSRKKFYKKKMMMMPPPQPSKLEQITQIVKETAWVIGTSAFVIIFPIYVATKL
For B2, the binding result in assay [1] and in assay [2] was “binds” in each case.
